# From article PMC10668032
# Some of the results follow. At the low end of the ranking, values are background and their order means little.
# Target: SIX1 homeodomain (reference allele) (UniProt Q15475)
# Test: universal protein binding microarray
# Conditions: Universal all-10-mer PBM (8x60K, AMADID 030236), 300 nM GST-tagged protein, Alexa Fluor 488 anti-GST; buffer, salt, pH and temperature not stated; high values mean tight binding; most listed sequences are background and not binding sites; double strand, one strand shown
row,Sequence,binding signal
1,GGTTAAAC,0.00204 E-score
2,ACAGCCCC,-0.117 E-score
3,ACAATACC,0.318 E-score
4,ATTGAACC,0.023 E-score
5,CTGTTAGC,-0.00211 E-score
6,CCAGCGCC,-0.352 E-score
7,GGCTACCC,-0.0488 E-score
8,CAGATAAA,0.179 E-score
9,ATGCTCAA,-0.122 E-score
10,AGAGACAA,-0.191 E-score
11,TCTGGTAA,0.0628 E-score
12,ATTTCCGA,0.0497 E-score
13,TACTAGCA,0.0418 E-score
14,AGTCTAAA,-0.0626 E-score
15,AGGGTAAC,-0.0222 E-score
16,CAATCTGC,-0.0146 E-score
17,ATTGAACG,-0.0864 E-score
18,TGGCGCAA,-0.203 E-score
19,AGGGATTG,0.203 E-score
20,AGTTACCC,-0.127 E-score
21,AAAAGTTG,-0.196 E-score
22,AGCGGATG,0.154 E-score

row,Sequence,binding signal
1,AGTCTCAT,-0.0067 E-score
2,ATAATATC,0.358 E-score
3,CAGGTCGC,-0.219 E-score
4,AGTGTCGG,0.0966 E-score
5,CCTGTTGA,-0.0461 E-score
6,TGCATCAA,0.0883 E-score
7,GCTCCTAC,-0.053 E-score
8,CGCGGCAA,-0.16 E-score
9,GGAGCCAC,-0.111 E-score
10,GCATGAAA,-0.0531 E-score
11,TAAGACAA,-0.166 E-score
12,TACTAGAA,-0.149 E-score
13,AATCCCTA,0.185 E-score
14,AACAGCCA,-0.142 E-score
15,CAACCGAC,0.05 E-score
16,CCGATAGA,0.079 E-score
17,ACAGGCCT,-0.264 E-score
18,CCAGTTGA,-0.0592 E-score
19,CTAGATAG,0.197 E-score
20,GTTGGACA,0.0696 E-score
21,GGCGTGCA,-0.226 E-score
22,CGTCCGAC,-0.0585 E-score

row,Sequence,binding signal
1,ATCAGGGG,0.307 E-score
2,AATGTTCC,-0.194 E-score
3,AGATATTA,0.234 E-score
4,AACCACGA,-0.0293 E-score
5,GATACTGC,0.445 E-score
6,AGCGCACA,0.00456 E-score
7,CTTCGAGA,-0.174 E-score
8,AGGCCATG,-0.148 E-score
9,ATTTTCTG,-0.253 E-score
10,GTCATATA,0.136 E-score
11,ATGAGTCC,-0.0856 E-score
12,GACCCTAC,-0.0502 E-score
13,CTACCAAG,-0.0197 E-score
14,AGGAGGTC,-0.184 E-score
15,ACCTGTTA,-0.148 E-score
16,AACATAAA,-0.085 E-score
17,ATATTCTG,0.15 E-score
18,TCCGAGAA,0.00813 E-score
19,AGACTTCG,-0.274 E-score
20,ACCTTCGA,0.0633 E-score
21,AACATGAT,0.112 E-score
22,GCCCCACC,0.0916 E-score

row,Sequence,binding signal
1,CAGGAGGA,0.00411 E-score
2,GGTAACAA,-0.0663 E-score
3,GCGCGTTA,0.0495 E-score
4,CTGCCCGC,-0.0571 E-score
5,CTGGAGTA,0.11 E-score
6,CCATCTCG,0.166 E-score
7,AAGTTAAG,-0.261 E-score
8,GTCCTAAA,-0.148 E-score
9,AAGGCAAG,-0.288 E-score
10,ACGCTGTA,-0.000255 E-score
11,AAGGCAGG,-0.0169 E-score
12,ATTGTCCG,-0.233 E-score
13,AACCTATT,-0.156 E-score
14,AATCATTA,-0.0338 E-score
15,CAGTTCTC,-0.00858 E-score
16,ATATACTG,0.299 E-score
17,GCACAGCC,-0.0822 E-score
18,CTTTTCGA,-0.0777 E-score
19,GGGGCTTA,-0.126 E-score
20,CTTCATAC,0.0997 E-score
21,ATTCGGGC,-0.158 E-score
22,ATTCAGAC,-0.0456 E-score

row,Sequence,binding signal
1,CATCGGAG,-0.0622 E-score
2,ACTATTCT,-0.00415 E-score
3,ATGAAACA,-0.084 E-score
4,ATCTTCAA,-0.0114 E-score
5,CTTTGTGA,-0.0025 E-score
6,TCAATCCA,0.163 E-score
7,CTCAATTC,-0.0408 E-score
8,GACCCGAA,0.00483 E-score
9,CGGCTACG,0.0124 E-score
10,CGACAACC,-0.183 E-score
11,GGGGTCGA,0.237 E-score
12,CATGGTAG,-0.107 E-score
13,GCTAAGGA,-0.129 E-score
14,GATCGCTA,0.3 E-score
15,ACGAACGG,0.0758 E-score
16,CGGCACAG,-0.16 E-score
17,AATGAATT,-0.118 E-score
18,CTCTGAAA,-0.142 E-score
19,GACGGCAC,-0.237 E-score
20,CTAAGAGA,-0.0529 E-score
21,AATCTGAC,0.092 E-score
